# Test results published in the supplement of paper PMC11417369.
# ± gives the standard deviation of the averaged measurements. The list shows a part of the results.
# Tested on: PfAP2-LT AP2 domain (GST-tagged)
# Test: gcPBM binding intensity (ln(normalized median fluorescence intensity)); higher = stronger DNA binding
# In short: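 For binding intensity, the highest Masliner-normalised natural-log median intensity across replicate spots of either probe orientation was taken. Protein bound to the array was stained with Alexa488 anti-GST antibody and scanned at 488 nm. The protein, GST-tagged P. falciparum DNA-binding domains from E. coli at about 25 μg on average, had been applied for 1 h to an Agilent 4 × 180k array of primer-extended double-stranded 36-bp intergenic genomic probes and negative controls.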
row,Sequence,gcPBM binding intensity (ln)
1,GTAGGCATTAAAAAATGTACAAAATATTATGAATTG [XGTACX_site1615],8.8 ± 0.54
2,TTTTTTTTTATTTGTTGTACGAGGTTTTAAAATTTT [XGTACX_site106],8.64 ± 0.45
3,TATAATATTCTATATGCATGTACACCATTCTTTATT [TGCATGCA_site688],9.15 ± 0.45
4,TATTGTTATCTTTTATGTACTTAAAAAAATAAATTT [XGTACX_site4233],8.26 ± 0.43
5,TAATAAAACATATATACACACATTATATATACATAT [CACACA_site8495],9.01 ± 0.4
6,AAAAAGGTTATTGGTACACACATATGTATATAAATA [CACACA_site6402],9.09 ± 0.53
7,TCTGTTCTTTTTTAATGTACAAGAAATATAAAATTC [XGTACX_site3600],8.26 ± 0.45
8,AATTTTTAGTATATAACATAAAATAAAATAAAATAA [GTGCAC_negctrl_site696],8.38 ± 0.54
9,AATTATAAATCTTGCACACAAAAAAAATAATAAAAA [CACACA_site2434],9.03 ± 0.52
10,TAATAAATAATGGTTACACACAAAATATAAAACTTA [CACACA_site3544],8.89 ± 0.57
11,AAATCTTTGTGTGGATGTACTTTTATAAAAAAGAAT [XGTACX_site3830],8.7 ± 0.46
12,TAAACACATATATAGACATGCAACTAGTTTTTATAA [TGCATGCA_site474],8.77 ± 0.33
13,AAAAAGGAAATAATAACACACATTAATAATTATAAA [CACACA_site3401],8.92 ± 0.48
14,TAAAAAGTTATATTCACACACATACACATATAAATA [CACACA_site6398],9.24 ± 0.26
15,TTATTTTTTTTTTTTTGTACACAATTTGACACATTA [XGTACX_site7983],8.73 ± 0.49
16,TTTATTTAATTATGTTGTACATGTAGGATTTATTTT [XGTACX_site7078],8.69 ± 0.52
17,ATAAATAAAACAAATAGTACAATATAAAAAAAAAGG [XGTACX_site87],9.02 ± 0.52
18,TATACAGATATATATACACACATATATATAAATACA [CACACA_site4383],9.24 ± 0.39
19,AAGAGGATACACAATGTGCACTTTTTTTTTTTTTTT [GTGCAC_site9415],8.91 ± 0.42
20,AAAAAAAAAAAAAACACACACACACGCATACACATA [CACACA_site7364],10.2
21,TATATATATAATATATGTACTCATATTAAGAGATAC [XGTACX_site1354],8.61 ± 0.41
22,AATGAGCTTTTTAAAAGTACTAAATATAAATAAATA [XGTACX_site3632],8.51 ± 0.52
23,TATATATGTATATTTTGTACGTATTTATTTACATGA [XGTACX_site4584],8.76 ± 0.46

row,Sequence,gcPBM binding intensity (ln)
1,TATATTTATACTTATACACACATTATTGAATTAACC [CACACA_site934],8.88 ± 0.41
2,ATTATTTATATTTGGAGTACTTATAATATTTTTATA [XGTACX_site1289],8.66 ± 0.38
3,AAAAAATATGCATATACACACATATGTATAAATAAC [CACACA_site7090],9.28 ± 0.33
4,CTTTATATATTTTATTGTACTTAAAAAAAAAAAAAA [XGTACX_site2134],7.92 ± 0.39
5,AAAATATTTATTCCTAGTACTTACCATTATATATAT [XGTACX_site363],8.8 ± 0.49
6,AAAAAAAAATGAAAAGAAAAAAAAAGAAAAAAGGGA [CACACA_negctrl_site287],8.69 ± 0.58
7,AGTGTAAGCTAAGTGGTGCGTTGAATAAGGTTTTTT [GTGCAC_site9951],8.91 ± 0.52
8,TATAGGTATTTGTATACACACAAATGTATATATCTA [CACACA_site6713],8.9 ± 0.37
9,TGTATAGTCTAAAGTTGTACAAAAAAAAAAAAAAAA [XGTACX_site5764],8.56 ± 0.51
10,TCTTTGGTATTTACATGTACATATTCTTAAAAACAT [XGTACX_site3124],8.88 ± 0.47
11,GAAAATAAAATATTAGTGCATTATTTGATCAATAAT,8.63 ± 0.42
12,AATAGTTGCTAAAGGTGTACAATACATTTATTAGAA [XGTACX_site2773],8.82 ± 0.53
13,TATTACTTAAATAAAAGTACATATAACATTTTAGTT [XGTACX_site196],8.46 ± 0.38
14,ATGTCATAAAAACATATACACACTTGAAATATAAAA [CACACA_site2329],8.96 ± 0.4
15,CATTCCTATTATTATACACACAAATTAAGAATTCAA [CACACA_site787],8.74 ± 0.29
16,TATAATATATTCATGTGTACATATATTTCGAACATA [XGTACX_site1754],8.81 ± 0.36
17,ATAAATATTGCGTGCACACACATAATATTTATATAT [CACACA_site7136],9.29 ± 0.36
18,CGAAAAATATGTATGAGTACTTATATTTAAACTATA [XGTACX_site1911],8.55 ± 0.41
19,AAAAAAAAAAAAAAAACACACAAACGCTTTTTTTTT [CACACA_site4545],8.93 ± 0.39
20,GGATAAGAGGCATATACACACAATTTAAAAAAATAA [CACACA_site4657],9.04 ± 0.52
21,ATTTTTTTGTTAATTTGTACATAAAATTTTATTTTA [XGTACX_site7007],8.6 ± 0.42
22,ATATTTATTTTATAAAGTACTAAAAAATATATTATA [XGTACX_site8522],8.28 ± 0.32
23,TTGTTTTATACATAGTGTACATATAAAAATTTTTTT [XGTACX_site7549],8.6 ± 0.45

row,Sequence,gcPBM binding intensity (ln)
1,ATATATATTATAATCTGTACATAAATATATAATAAA [XGTACX_site5425],8.68 ± 0.38
2,TCTTAAATTATGATAAAATATAATAAATAAATAAAT [CACACA_negctrl_site1520],8.38 ± 0.49
3,ATTTTCCCTAGAATATGTACACATAGTAAATATTAT [XGTACX_site7499],8.71 ± 0.39
4,CAGATAAATAAACACACACACACATATATATATATA [CACACA_site9311],10.16 ± 0.078
5,ATATATAAATATGAAACACACATTCTATTTAATTCG [CACACA_site1450],8.76 ± 0.42
6,AAATAAAGAAATGCAAGTACATACTAAACTAATCCA [XGTACX_site1209],9 ± 0.33
7,AAAAAAAAAAAAGAAAAATATATATATAAATAAATA [GTGCAC_negctrl_site569],8.37 ± 0.61
8,ATATGTACAAATTATACACACATGTACAATTATATA [CACACA_site1253],9.15 ± 0.34
9,ATGTCACAATTTTTCACACACAAAATTTATATACAT [CACACA_site2030],9.22 ± 0.39
10,TATGTTTCTATATATACATGCAAGAAGAAATGTACT [TGCATGCA_site891],8.63 ± 0.34
11,GAATATTAATTCAAGTGTACAAATATATATATAATT [XGTACX_site5103],8.82 ± 0.46
12,CAAAAGGATAGGCACACACACACACCGATATATATA [CACACA_site8685],10.1 ± 0.21
13,AATTTAAAAAATAATTGTACAAAAAAAAAAAATCAG [XGTACX_site4576],8.65 ± 0.56
14,GTTAATATTTTTGGGGGTACTTAAAAAAAAAAAAAA [XGTACX_site1477],8.525 ± 0.021
15,TTACATACAATTGGTGTGCACATATATATATATATA,9.65 ± 0.31
16,TATGTTTTTGAATGAGTGCATTAAAATAAAACATTT,8.47 ± 0.37
17,TTCTTGTATATTCATAGTACATATAATGTCGTGTTA [XGTACX_site8991],8.94 ± 0.52
18,TAATAAGGAATTTATAGTACATATTCATATGTTTTA [XGTACX_site2331],8.5 ± 0.45
19,ATAATATAAATATACACACACACATATATATATATA [CACACA_site2905],9.98 ± 0.2
20,ATAAAAATTTATATATGTACTTAATTTTTAATTTTT [XGTACX_site7482],8.4 ± 0.52
21,TTATATTATATATATGTGCACATTTTTAAACTTGGA,8.77 ± 0.47
22,ACAAATAAAAATATTACACACACTATTATATTGATA [CACACA_site1494],9.17 ± 0.33
23,GGAAGATGAAAAATAAAGCATGTGCTGTACAAACGA [CACACA_negctrl_site1625],9.04 ± 0.45

row,Sequence,gcPBM binding intensity (ln)
1,AAATATTTATATGTTACACACTGTTGATAATTTTCT [CACACA_site1347],8.87 ± 0.42
2,TTCAAATTGTTTATATGTACTTATAAAAATTGTCTG [XGTACX_site977],8.52 ± 0.43
3,ATTAAAAAAAAAAAAAGTACTTATAATTATACTCGT [XGTACX_site4852],8.51 ± 0.49
4,AGACCTTTAATTTGTGTGCACATAATTAGTGTACAT [GTGCAC_site9434],9.77 ± 0.31
5,ATTTTTGTAATTATTTGTACACATTTATTTATGTGT [XGTACX_site1864],9.46 ± 0.39
6,AAAAATATTTTGGTTTGTACATATATTTTTACAATA [XGTACX_site8691],8.61 ± 0.34
7,ACTTATTTCGATATGTGTACTTAATATATATATTTA [XGTACX_site6616],8.87 ± 0.4
8,TGACCGTTTTAAGAGTGTACAAAAAAAAAAAAAAAA [XGTACX_site4141],8.44 ± 0.47
9,TATTCTATATAATAATGTACGTGATTTAAATTTTCA [XGTACX_site6650],8.59 ± 0.43
10,AAATAAAATAAAAACATGCACACTTTATTTTTTTTA [CACACA_site2800],8.63 ± 0.45
11,AGAAGTTTAAAAAGCACACAAAAAAAAAAAAAAAGA [CACACA_site3309],8.67 ± 0.49
12,AAAAATACCTGAATATGTACATATGATCAATGGGCC [XGTACX_site887],9.21 ± 0.38
13,ATTCATATATATTATACACACACATATATAAATATA [CACACA_site8228],9.18 ± 0.18
14,AAAATCGTGTTCTGAATACACACTAATACAAAGTTG [CACACA_site3985],8.79 ± 0.35
15,TAAAAATATAAATTTTGTACGTAAAAAATGGTTCTT [XGTACX_site1506],8.66 ± 0.41
16,AATTATACTTCCTTCACACAGTTACATCATATATTA [CACACA_site5942],8.94 ± 0.35
17,TAAAAAATAAGATATACACACATATATATATATATA [CACACA_site2324],9.87 ± 0.32
18,ATTCACATACATTACTTACACACCATATTAATATAT [CACACA_site459],9.21 ± 0.41
19,TAACATATTAATAACATATTTATAATATATTAATAA [TGCATGCA_negctrl_site243],8.34 ± 0.43
20,AAAAAAAAAAAAAAGGAACACACAAGTAACAATAAA [CACACA_site8792],9.04 ± 0.64
21,GTAAGAAAGAAAGGAAGTACGTAAGAAAGTAAGAAC [XGTACX_site1239],9.63 ± 0.59
